{"source": "the supplement of paper PMC8728848", "binders": {"B1": {"name": "rCnSL-proA (Clitocybe nebularis) (protein)", "chain": "AAFFSLVVLLALLPFGIHASALPSTELTPRVNPNLPGPNDVFVGFRGTNNIVGAIYEKDGIKDTPLNNGADAEMGPGSYITDGLFTARIFASGSAGNNPGTTATVCKIYASGVQWRGAPKGYIPVAYFGNGPTAEQRRQTYLRTLGLPGTAIRFGNLNTNPGQGPTAPRQMVVPPGPLRSLLKASCFPAADTRLPQTLHYFEKRVDWNIITAADSQTWGH"}}, "experiment_in_all_cases": "glycan array binding signal (z-score within array); higher = stronger binding", "settings_in_all_cases": "glycan notation: IUPAC condensed, linker removed", "key": {"Gal(b1-2)Gal": {"molecular_target": "Gal(b1-2)Gal", "how_it_was_run": "(§1)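 Arrays were curated from the Consortium for Functional Glycomics database, 3228 in total, and kept only where the protein sequence was available. Binding is expressed as a within-array Z-score. This score was averaged across arrays of the same protein sequence at different concentrations or buffers and across linkers, and negative values can be read as non-binding.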"}, "Gal(b1-3)Gal": {"molecular_target": "Gal(b1-3)Gal", "how_it_was_run": "as §1"}, "Gal(b1-3)Gal(b1-4)GlcNAc": {"molecular_target": "Gal(b1-3)Gal(b1-4)GlcNAc", "how_it_was_run": "as §1"}, "Gal(b1-3)GalNAc": {"molecular_target": "Gal(b1-3)GalNAc", "how_it_was_run": "as §1"}, "[1]": {"molecular_target": "Gal(b1-3)GalNAc(a1-3)[Fuc(a1-2)]Gal(b1-4)Glc", "how_it_was_run": "as §1"}, "[2]": {"molecular_target": "Gal(b1-3)GalNAc(a1-3)[Fuc(a1-2)]Gal(b1-4)GlcNAc", "how_it_was_run": "as §1"}, "Gal(b1-3)GalNAc(b1-3)Gal": {"molecular_target": "Gal(b1-3)GalNAc(b1-3)Gal", "how_it_was_run": "as §1"}, "[3]": {"molecular_target": "Gal(b1-3)GalNAc(b1-3)Gal(a1-4)Gal(b1-4)Glc", "how_it_was_run": "as §1"}, "[4]": {"molecular_target": "Gal(b1-3)GalNAc(b1-4)Gal(b1-4)Glc", "how_it_was_run": "as §1"}, "[5]": {"molecular_target": "Gal(b1-3)GalNAc(b1-4)[Neu5Ac(a2-3)]Gal(b1-4)Glc", "how_it_was_run": "as §1"}, "Gal(b1-3)GlcNAc": {"molecular_target": "Gal(b1-3)GlcNAc", "how_it_was_run": "as §1"}, "[6]": {"molecular_target": "Gal(b1-3)GlcNAc(a1-3)Gal(b1-4)GlcNAc", "how_it_was_run": "as §1"}, "[7]": {"molecular_target": "Gal(b1-3)GlcNAc(a1-6)Gal(b1-4)GlcNAc", "how_it_was_run": "as §1"}, "Gal(b1-3)GlcNAc(b1-2)Man": {"molecular_target": "Gal(b1-3)GlcNAc(b1-2)Man", "how_it_was_run": "as §1"}, "[8]": {"molecular_target": "Gal(b1-3)GlcNAc(b1-2)Man(a1-3)[Gal(b1-3)GlcNAc(b1-2)Man(a1-6)]Man(b1-4)GlcNAc(b1-4)GlcNAc", "how_it_was_run": "as §1"}, "[9]": {"molecular_target": "Gal(b1-3)GlcNAc(b1-2)Man(a1-3)[Gal(b1-3)GlcNAc(b1-2)Man(a1-6)]Man(b1-4)GlcNAc(b1-4)[Fuc(a1-6)]GlcNAc", "how_it_was_run": "as §1"}, "[10]": {"molecular_target": "Gal(b1-3)GlcNAc(b1-2)Man(a1-3)[GlcNAc(b1-4)][Gal(b1-3)GlcNAc(b1-2)Man(a1-6)]Man(b1-4)GlcNAc(b1-4)GlcNAc", "how_it_was_run": "as §1"}, "[11]": {"molecular_target": "Gal(b1-3)GlcNAc(b1-2)[Gal(b1-3)GlcNAc(b1-6)]Man(a1-6)[Gal(b1-3)GlcNAc(b1-2)Man(a1-3)]Man(b1-4)GlcNAc(b1-4)GlcNAc", "how_it_was_run": "as §1"}, "[12]": {"molecular_target": "Gal(b1-3)GlcNAc(b1-3)Gal(b1-3)GlcNAc", "how_it_was_run": "as §1"}, "[13]": {"molecular_target": "Gal(b1-3)GlcNAc(b1-3)Gal(b1-4)Glc", "how_it_was_run": "as §1"}, "[14]": {"molecular_target": "Gal(b1-3)GlcNAc(b1-3)Gal(b1-4)GlcNAc", "how_it_was_run": "as §1"}, "[15]": {"molecular_target": "Gal(b1-3)GlcNAc(b1-3)Gal(b1-4)GlcNAc(b1-2)Man(a1-3)[Gal(b1-3)GlcNAc(b1-3)Gal(b1-4)GlcNAc(b1-2)Man(a1-6)]Man(b1-4)GlcNAc(b1-4)GlcNAc", "how_it_was_run": "as §1"}, "[16]": {"molecular_target": "Gal(b1-3)GlcNAc(b1-3)Gal(b1-4)GlcNAc(b1-2)[Gal(b1-3)GlcNAc(b1-3)Gal(b1-4)GlcNAc(b1-6)]Man(a1-6)[Gal(b1-3)GlcNAc(b1-3)Gal(b1-4)GlcNAc(b1-2)Man(a1-3)]Man(b1-4)GlcNAc(b1-4)[Fuc(a1-6)]GlcNAc", "how_it_was_run": "as §1"}, "[17]": {"molecular_target": "Gal(b1-3)GlcNAc(b1-3)Gal(b1-4)GlcNAc(b1-3)Gal(b1-4)GlcNAc(b1-2)[Gal(b1-3)GlcNAc(b1-3)Gal(b1-4)GlcNAc(b1-3)Gal(b1-4)GlcNAc(b1-6)]Man(a1-6)[Gal(b1-3)GlcNAc(b1-3)Gal(b1-4)GlcNAc(b1-3)Gal(b1-4)GlcNAc(b1-2)Man(a1-3)]Man(b1-4)GlcNAc(b1-4)[Fuc(a1-6)]GlcNAc", "how_it_was_run": "as §1"}, "[18]": {"molecular_target": "Gal(b1-3)GlcNAc(b1-3)Gal(b1-4)GlcNAc(b1-6)[Gal(b1-3)GlcNAc(b1-3)]Gal(b1-4)Glc", "how_it_was_run": "as §1"}, "[19]": {"molecular_target": "Gal(b1-3)GlcNAc(b1-3)Gal(b1-4)[Fuc(a1-3)]GlcNAc", "how_it_was_run": "as §1"}, "[20]": {"molecular_target": "Gal(b1-3)GlcNAc(b1-3)Gal(b1-4)[Fuc(a1-3)]GlcNAc(b1-6)[Gal(b1-3)GlcNAc(b1-3)]Gal(b1-4)Glc", "how_it_was_run": "as §1"}, "[21]": {"molecular_target": "Gal(b1-3)GlcNAc(b1-3)GalNAc", "how_it_was_run": "as §1"}, "[22]": {"molecular_target": "Gal(b1-3)GlcNAc(b1-6)Gal(b1-4)GlcNAc", "how_it_was_run": "as §1"}, "[23]": {"molecular_target": "Gal(b1-3)GlcNAc(b1-6)GalNAc", "how_it_was_run": "as §1"}, "[24]": {"molecular_target": "Gal(b1-3)GlcNAc(b1-6)[Gal(b1-3)]GalNAc", "how_it_was_run": "as §1"}, "Gal(b1-3)GlcNAc6S": {"molecular_target": "Gal(b1-3)GlcNAc6S", "how_it_was_run": "as §1"}, "[25]": {"molecular_target": "Gal(b1-3)[Fuc(a1-4)]GlcNAc", "how_it_was_run": "as §1"}, "[26]": {"molecular_target": "Gal(b1-3)[Fuc(a1-4)]GlcNAc(b1-2)Man", "how_it_was_run": "as §1"}, "[27]": {"molecular_target": "Gal(b1-3)[Fuc(a1-4)]GlcNAc(b1-2)Man(a1-3)[Gal(b1-3)[Fuc(a1-4)]GlcNAc(b1-2)Man(a1-6)]Man(b1-4)GlcNAc(b1-4)[Fuc(a1-6)]GlcNAc", "how_it_was_run": "as §1"}, "[28]": {"molecular_target": "Gal(b1-3)[Fuc(a1-4)]GlcNAc(b1-3)Gal(b1-3)[Fuc(a1-4)]GlcNAc", "how_it_was_run": "as §1"}, "[29]": {"molecular_target": "Gal(b1-3)[Fuc(a1-4)]GlcNAc(b1-3)Gal(b1-4)[Fuc(a1-3)]GlcNAc", "how_it_was_run": "as §1"}, "[30]": {"molecular_target": "Gal(b1-3)[Fuc(a1-4)]GlcNAc(b1-6)GalNAc", "how_it_was_run": "as §1"}, "[31]": {"molecular_target": "Gal(b1-3)[GlcNAc(b1-6)]GalNAc", "how_it_was_run": "as §1"}, "[32]": {"molecular_target": "Gal(b1-3)[Neu5Ac(a2-6)]GalNAc", "how_it_was_run": "as §1"}, "[33]": {"molecular_target": "Gal(b1-3)[Neu5Ac(a2-6)]GlcNAc(b1-4)Gal(b1-4)Glc", "how_it_was_run": "as §1"}, "[34]": {"molecular_target": "Gal(b1-3)[Neu5Ac(b2-6)]GalNAc", "how_it_was_run": "as §1"}, "Gal(b1-4)Gal": {"molecular_target": "Gal(b1-4)Gal", "how_it_was_run": "as §1"}, "[35]": {"molecular_target": "Gal(b1-4)GalNAc(a1-3)[Fuc(a1-2)]Gal(b1-4)GlcNAc", "how_it_was_run": "as §1"}, "[36]": {"molecular_target": "Gal(b1-4)GalNAc(b1-3)[Fuc(a1-2)]Gal(b1-4)GlcNAc", "how_it_was_run": "as §1"}}, "note": "Some of the results follow."}
{"binder": "B1", "values": [{"measurement": "glycan array binding signal (z-score)", "setting": "Gal(b1-2)Gal", "result": -0.257}, {"measurement": "glycan array binding signal (z-score)", "setting": "Gal(b1-3)Gal", "result": -0.077}, {"measurement": "glycan array binding signal (z-score)", "setting": "Gal(b1-3)Gal(b1-4)GlcNAc", "result": -0.238}, {"measurement": "glycan array binding signal (z-score)", "setting": "Gal(b1-3)GalNAc", "result": -0.229}, {"measurement": "glycan array binding signal (z-score)", "setting": "[1]", "result": 0.02}, {"measurement": "glycan array binding signal (z-score)", "setting": "[2]", "result": -0.151}, {"measurement": "glycan array binding signal (z-score)", "setting": "Gal(b1-3)GalNAc(b1-3)Gal", "result": -0.298}, {"measurement": "glycan array binding signal (z-score)", "setting": "[3]", "result": -0.17}, {"measurement": "glycan array binding signal (z-score)", "setting": "[4]", "result": -0.071}, {"measurement": "glycan array binding signal (z-score)", "setting": "[5]", "result": -0.118}, {"measurement": "glycan array binding signal (z-score)", "setting": "Gal(b1-3)GlcNAc", "result": -0.316}, {"measurement": "glycan array binding signal (z-score)", "setting": "[6]", "result": -0.185}, {"measurement": "glycan array binding signal (z-score)", "setting": "[7]", "result": 0.176}, {"measurement": "glycan array binding signal (z-score)", "setting": "Gal(b1-3)GlcNAc(b1-2)Man", "result": -0.057}, {"measurement": "glycan array binding signal (z-score)", "setting": "[8]", "result": -0.571}, {"measurement": "glycan array binding signal (z-score)", "setting": "[9]", "result": 0.494}, {"measurement": "glycan array binding signal (z-score)", "setting": "[10]", "result": 0.507}, {"measurement": "glycan array binding signal (z-score)", "setting": "[11]", "result": 1.1}, {"measurement": "glycan array binding signal (z-score)", "setting": "[12]", "result": -0.285}, {"measurement": "glycan array binding signal (z-score)", "setting": "[13]", "result": -0.329}, {"measurement": "glycan array binding signal (z-score)", "setting": "[14]", "result": 0.059}, {"measurement": "glycan array binding signal (z-score)", "setting": "[15]", "result": 1.71}, {"measurement": "glycan array binding signal (z-score)", "setting": "[16]", "result": -0.023}, {"measurement": "glycan array binding signal (z-score)", "setting": "[17]", "result": 1.44}, {"measurement": "glycan array binding signal (z-score)", "setting": "[18]", "result": 0.561}, {"measurement": "glycan array binding signal (z-score)", "setting": "[19]", "result": -0.065}, {"measurement": "glycan array binding signal (z-score)", "setting": "[20]", "result": 0.293}, {"measurement": "glycan array binding signal (z-score)", "setting": "[21]", "result": -0.738}, {"measurement": "glycan array binding signal (z-score)", "setting": "[22]", "result": 0.439}, {"measurement": "glycan array binding signal (z-score)", "setting": "[23]", "result": -0.648}, {"measurement": "glycan array binding signal (z-score)", "setting": "[24]", "result": -0.912}, {"measurement": "glycan array binding signal (z-score)", "setting": "Gal(b1-3)GlcNAc6S", "result": -0.147}, {"measurement": "glycan array binding signal (z-score)", "setting": "[25]", "result": -0.077}, {"measurement": "glycan array binding signal (z-score)", "setting": "[26]", "result": -0.106}, {"measurement": "glycan array binding signal (z-score)", "setting": "[27]", "result": -0.292}, {"measurement": "glycan array binding signal (z-score)", "setting": "[28]", "result": -0.333}, {"measurement": "glycan array binding signal (z-score)", "setting": "[29]", "result": -0.471}, {"measurement": "glycan array binding signal (z-score)", "setting": "[30]", "result": -0.623}, {"measurement": "glycan array binding signal (z-score)", "setting": "[31]", "result": -0.423}, {"measurement": "glycan array binding signal (z-score)", "setting": "[32]", "result": 0.335}, {"measurement": "glycan array binding signal (z-score)", "setting": "[33]", "result": -0.459}, {"measurement": "glycan array binding signal (z-score)", "setting": "[34]", "result": -0.458}, {"measurement": "glycan array binding signal (z-score)", "setting": "Gal(b1-4)Gal", "result": -0.621}, {"measurement": "glycan array binding signal (z-score)", "setting": "[35]", "result": -0.433}, {"measurement": "glycan array binding signal (z-score)", "setting": "[36]", "result": -0.746}]}
